# According to PubChem BioAssay AID488969 (Vanderbilt High Throughput Screening Facility, 2010):
# The full ranking holds about 110,000 compounds; the median of “z-score” is about -0.1, and the highest 2% start at about 2. Some of the results follow. The source made the active and inactive calls.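 How the source made its calls: active means z-score in the third read window above 3 or below -3; inactive means the rest.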
# Target: Metabotropic glutamate receptor 8 (Rattus norvegicus) (UniProt P70579)
# Test: rat mGluR8 modulators via GIRK flux, primary screen, cell-based, thallium flux, HTS (AID 488969)
# Details: HEK293 rat mGluR8, GIRK (G protein-gated inwardly rectifying potassium channel) thallium flux, FluoZin2; at 10 µM; stronger effect = higher value; submaximal glutamate (EC20) added with thallium
# Chain of UniProt P70579 (P70579 whole entry, looked up): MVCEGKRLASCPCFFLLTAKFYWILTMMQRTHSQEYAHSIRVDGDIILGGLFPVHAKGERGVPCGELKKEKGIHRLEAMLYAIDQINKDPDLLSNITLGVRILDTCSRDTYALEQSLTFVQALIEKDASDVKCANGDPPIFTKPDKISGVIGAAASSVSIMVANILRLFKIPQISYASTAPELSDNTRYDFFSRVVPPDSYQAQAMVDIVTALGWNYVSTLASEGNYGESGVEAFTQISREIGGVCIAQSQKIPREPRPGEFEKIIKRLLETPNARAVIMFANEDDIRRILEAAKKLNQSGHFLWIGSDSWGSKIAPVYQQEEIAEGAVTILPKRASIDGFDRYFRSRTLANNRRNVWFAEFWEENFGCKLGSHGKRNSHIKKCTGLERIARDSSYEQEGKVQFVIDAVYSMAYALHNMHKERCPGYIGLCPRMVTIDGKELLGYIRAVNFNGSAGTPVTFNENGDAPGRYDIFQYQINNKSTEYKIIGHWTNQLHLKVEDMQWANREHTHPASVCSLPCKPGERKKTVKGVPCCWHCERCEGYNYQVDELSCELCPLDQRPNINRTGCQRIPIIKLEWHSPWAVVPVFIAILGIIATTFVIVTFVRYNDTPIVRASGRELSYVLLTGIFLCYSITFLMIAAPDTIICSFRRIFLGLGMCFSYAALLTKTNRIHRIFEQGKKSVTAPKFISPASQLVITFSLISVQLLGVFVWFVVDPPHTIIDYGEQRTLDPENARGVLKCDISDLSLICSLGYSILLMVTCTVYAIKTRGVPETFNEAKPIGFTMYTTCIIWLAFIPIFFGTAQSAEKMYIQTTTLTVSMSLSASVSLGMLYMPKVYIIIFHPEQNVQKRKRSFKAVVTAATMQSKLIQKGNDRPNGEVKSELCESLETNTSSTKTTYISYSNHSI
row,Compound,z-score
1,CN(C)c1oc(COc2ccccc2F)nc1C#N,-0.275
2,COc1ccc(-c2nc(CSCC(=O)N3CCN(C4CCCCC4)CC3)c(C)o2)cc1OC,-0.529
3,COc1ccc(C(=O)Nc2ccc(S(=O)(=O)N3CCCCC3)cc2)cc1,-0.709
4,O=C(CCN1CCN(Cc2ccccc2)CC1)Nc1cccc(Cl)c1,-0.137
5,Cc1ccc(NC(=O)CSc2nn(-c3ccccc3)c(=S)s2)cc1S(=O)(=O)N(C)C,-1.54
6,CCN(CC)C(=O)c1sc2nc(-c3ccncc3)[nH]c(=O)c2c1C,-0.582
7,CN(C)CC(C)(C)CNC(=O)c1cc(=O)c2ccccc2o1,-0.272
8,O=C(NCc1ccco1)c1ccc2c(=O)n(CC3CCCO3)c(=S)[nH]c2c1 (stereo unspecified),0.879
9,Cc1csc(NC(=O)c2cc3c(C)nn(Cc4ccccc4Cl)c3s2)n1,-1.61
10,CC(C)CCOc1ccc(C(=O)NCCC(=O)N2CCOCC2)cc1,-0.0354
11,COc1ccccc1NC(=O)NCC(=O)Nc1ccc(F)c(F)c1,0.909
12,CCOc1cccc(C2C(C#N)=C(N)Oc3cc(C)oc(=O)c32)c1OCC (stereo unspecified),-0.48
13,Cc1c(C#N)c(N)nc2c3c(sc12)NC(=O)CC3c1ccc(Cl)cc1 (stereo unspecified),-1.47
14,CCCCc1cc(=O)oc2c(CN(C)C)c(O)c(Cl)cc12,-0.228
15,NC(=O)/C(=C/c1ccco1)NC(=O)/C=C/c1ccccc1,0.0658
16,N#Cc1cc2c(nc1SCC(=O)Nc1sc3c(c1C#N)CCC3)CCCC2,-0.0894
17,NC(=O)SCC(=O)Nc1cccc(Cl)c1,2.86
18,CCNC(=O)Cn1c(=O)c(=O)n(Cc2ccccc2)c2ccc(Cl)cc21,-0.225
19,Nc1c(NC2CCCCC2)c2ccccc2oc1=O,-0.238

row,Compound,z-score
1,O=[N+]([O-])c1ccc(C2CCCC/C2=N\OCc2cccc(F)c2)c([N+](=O)[O-])c1 (stereo unspecified),-0.436
2,Cc1ccc(C(c2sc3nc(C)nn3c2O)N2CC(C)OC(C)C2)cc1 (stereo unspecified),0.859
3,Cc1ccc(N/C=C(/C#N)c2ccsc2)cc1C,-1.02
4,CCCOc1ccc(-c2nnc(N)s2)cc1,-0.502
5,CCCNC(=O)c1ccccc1NS(=O)(=O)c1ccc(OC)c(OC)c1,-0.122
6,FC(F)(F)c1cnc(NNC(=S)Nc2ccccc2Cl)c(Cl)c1,active: 5.28
7,CNC(=O)CSc1nnc(-c2cc(C)cc(C)c2)o1,0.00701
8,CCCCCCCCC(=O)N/N=C(\C)c1cccnc1,-0.226
9,O=c1cc(-c2cccs2)oc2ccc(Cl)cc12,-0.565
10,C/C(CC1CC(COCC(C)C)OC1=O)=N\Nc1nc(-c2ccccc2)cs1 (stereo unspecified),-0.26
11,Cn1c(=O)n(Cc2ccco2)c(=N)c2c3c(sc21)CCC3,-0.795
12,CC1(CCc2ccc3c(c2)OCO3)NC(=O)c2ccccc2N1 (stereo unspecified),-0.121
13,CN(C)S(=O)(=O)N(CCN1CCOCC1)Cc1ccccc1F,0.784
14,Cc1sc(-c2ccncc2)nc1OC(=O)c1cc(Cl)cc(Cl)c1,-0.398
15,CN(C)c1ccnc(Oc2ccc(F)cc2)c1C#N,-0.0819
16,Clc1ccc2c(c1)C(c1cccs1)=NNC(c1cccnc1)=N2,-0.47
17,CCOc1cc(/C=C(\C#N)C(N)=O)ccc1OS(=O)(=O)c1ccccc1,-0.457
18,C=CCN1C=C/C(=C\C=C(C#N)C#N)c2ccccc21,-0.0647
19,CCCc1nnc(SCC(=O)N2CCOCC2)n1Cc1ccco1,-0.177

row,Compound,z-score
1,CCOC(=O)c1c(CN(CC)CC)oc2ccc(OC)cc12,-0.0412
2,O=C(Nc1ccc(F)cc1F)c1ccco1,-0.0416
3,CCOC(=O)c1cnc2c(Cl)cccc2c1NCCN(C)C,0.313
4,CCCn1c2ccccc2c2nnc(SC(CC)C(=O)Nc3sc4c(c3C#N)CCCC4)nc21 (stereo unspecified),0.338
5,Cc1ccc2[nH]c3c(N4CCc5ccccc5C4)ncnc3c2c1,-0.285
6,CCN(Cc1ccccc1)C(=O)c1ccccc1C,0.221
7,COCCn1c(N)c(NCc2ccccc2)c(=O)n(CC(=O)Nc2cc(C)ccc2C)c1=O,0.649
8,CCOC(=O)c1cnc2nc(C(F)(F)F)[nH]n2c1=O,0.532
9,COc1cc(OC)cc(C(=O)N/N=C/c2ccc(OC)c(COc3ccc4ccccc4c3)c2)c1,0.0547
10,Cc1cccc(N2CCN(c3ccc(N4C(=O)CCCC4=O)cc3[N+](=O)[O-])CC2)c1C,0.0766
11,CCOc1cc(N2CCOCC2)c(OCC)cc1NC(=O)COC(=O)CCc1c[nH]c2ccccc12,active: 8.03
12,COc1ccc(C(=O)N2CCCC(c3ccccc3)C2)cc1 (stereo unspecified),-0.568
13,Cn1c(C(=O)NCCC2=CCCCC2)cc2c(=O)n3ccccc3nc21,-0.203
14,Clc1ccc(OCCn2ccnc2)c(Cl)c1,0.46
15,COc1ccc(CNC(=O)c2cc3c(=O)n4ccccc4nc3n(Cc3ccco3)c2=N)cc1,0.125
16,COC(=O)C1=C(C)NC(C)=C(C(=O)OC)C1c1ccccn1,-0.0847
17,O=C(CSc1nnnn1-c1ccccc1)N1CCCc2ccccc21,-0.861
18,Cc1ccc2c(c1)N(Cc1ccncc1)C(=O)C(C)O2 (stereo unspecified),0.33
